Over roughly 33,000 sequences, “E-score (-0.5 to 0.5)” has its median near -0.021; the highest 2% begin near 0.32. The list shows a part of the results.
These sequences were tested against T1, Zap1 (UniProt P47043) (assay: PBM E-score (8-mer binding enrichment) (E-score (-0.5 to 0.5)); higher = stronger / more preferred TF binding; most listed sequences are background and not binding sites). Conditions: protein concentration: 200 nM; construct: GST-full length.
T1 sequence: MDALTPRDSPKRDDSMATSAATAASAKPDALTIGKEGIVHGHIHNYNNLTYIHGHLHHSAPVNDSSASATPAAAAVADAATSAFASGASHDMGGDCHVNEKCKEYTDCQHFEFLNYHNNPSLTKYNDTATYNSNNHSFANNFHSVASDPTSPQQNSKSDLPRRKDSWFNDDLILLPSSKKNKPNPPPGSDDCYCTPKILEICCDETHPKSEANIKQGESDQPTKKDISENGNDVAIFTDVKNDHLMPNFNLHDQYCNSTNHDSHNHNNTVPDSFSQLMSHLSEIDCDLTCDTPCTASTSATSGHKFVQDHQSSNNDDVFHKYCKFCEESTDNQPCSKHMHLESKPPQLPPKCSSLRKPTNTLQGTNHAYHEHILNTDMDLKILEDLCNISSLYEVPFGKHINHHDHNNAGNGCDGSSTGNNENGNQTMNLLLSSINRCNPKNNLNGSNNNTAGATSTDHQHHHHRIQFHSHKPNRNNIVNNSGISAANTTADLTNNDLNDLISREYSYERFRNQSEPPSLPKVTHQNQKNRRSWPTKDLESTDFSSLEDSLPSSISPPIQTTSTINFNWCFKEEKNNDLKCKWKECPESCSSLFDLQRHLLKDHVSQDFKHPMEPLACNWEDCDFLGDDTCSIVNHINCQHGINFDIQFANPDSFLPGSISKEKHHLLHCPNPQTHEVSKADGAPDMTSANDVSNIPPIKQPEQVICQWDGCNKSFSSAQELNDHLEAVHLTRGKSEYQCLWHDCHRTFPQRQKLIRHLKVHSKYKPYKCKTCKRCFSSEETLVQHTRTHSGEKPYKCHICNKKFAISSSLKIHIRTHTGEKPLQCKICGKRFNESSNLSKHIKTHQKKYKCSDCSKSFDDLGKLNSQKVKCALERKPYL
In short: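 Masliner-normalised scans of fluorescent anti-GST signal were the basis for scoring. That signal came from GST-tagged yeast transcription factors applied at about 100-200 nM to double-stranded universal all-10-mer Agilent arrays on fresh or once-stripped slides. Each ungapped eight-base word, pooled with its reverse complement, received an E-score from the Universal PBM Analysis Suite.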

Sequence	PBM E-score
GCATCGTA	0.00397
AGTTCGGG	0.122
ATCTGCAG	-0.071
CGCAGTAA	0.0339
GCAGCTAA	-0.0888
GAAATTAC	0.18
CGCGACCG	0.228
GAGAGCGC	-0.341
ACGCCTAT	-0.255
TCGACTCA	-0.0722
CAAGCCGG	-0.0311
AAGCTTTC	0.0356
TCAGCAAA	0.141
ATTTCCTA	0.082
AAGTTTCT	0.125
ATCCGTCA	-0.0725
ACGGGCGG	-0.16
CTGACTGC	-0.122
GTGGAGGA	-0.0329
GACACGCC	-0.14
CTCAGTCA	-0.12
AGCTGGTA	-0.149
GGAAATTA	0.153
ATTAGAGC	-0.0383
ACATCGAT	0.137

Sequence	PBM E-score
TACTCAGA	0.037
ACTAAGGA	-0.182
TCGCCCGA	-0.206
CGGATAGC	-0.0817
CCGTCAAA	-0.0822
GATTTGAA	0.018
ACAGTCTG	-0.103
GAGAGCCC	-0.309
GAGCCAGA	-0.0646
CAAATTTC	0.0744
TACGATAA	0.12
AACTCGCT	0.0379
GACCACTC	0.0556
AGCTCGCA	-0.204
ACATACCG	-0.00488
AGCATCAT	-0.0814
AAAGGAAG	-0.153
GCCTGATA	-0.177
CTCGCGAA	-0.0511
GTACCTCA	0.283
CTAGGCAC	-0.107
ATAAATAA	0.282
CAATGGAA	0.0791
GTGAGCCA	-0.0377
CCTCTTCA	0.0402

Sequence	PBM E-score
ATAAGTAA	0.226
CGGGATCC	-0.0153
CTTTACTA	0.162
CCGTGAAA	0.188
GCCCCTGA	-0.0457
AACTTGCA	-0.105
ACGGTTTG	0.0504
AGATTATG	0.113
AATTAGCC	-0.114
AGCGTGGG	-0.176
CACATGCG	-0.0352
ACATCATA	0.123
CCATCCCC	-0.228
TCGTCACA	-0.0338
AGAAAAAC	0.158
CTCTTAGA	-0.00743
CCGGTCCC	0.0065
ATTACGAG	0.0606
TACCAAAA	0.161
CATTCTTC	-0.0631
GTAACGAC	0.105
CACTAGCA	-0.00655
ATGGGCTG	-0.246
AGATACGA	0.122
CAGGGACG	-0.161

Sequence	PBM E-score
TCGGCCAA	-0.107
CGAATGGC	0.0541
CCCACTGC	-0.119
GGCCACGA	0.126
CAGCCCAA	-0.0128
CGAACCGA	0.0656
AGTGGCGG	-0.0506
TAGCTCCA	-0.208
TCGTGCCA	-0.186
CCACTTTC	-0.101
AATCACCA	0.214
AACTAAAT	0.0365
ACAGGCCC	-0.203
TAGATCCA	-0.0356
CTGTGGCA	-0.243
GGGGCCGA	-0.214
ACTATCAC	0.144
AAGGTACT	0.33
TCGCCACA	-0.04
ACGGGGGC	-0.272
CGTGATTC	-0.158
CCTTTGAA	0.108
CATAGTAA	0.217
ACTCCCCT	-0.137
CGCCACAA	0.141

Sequence	PBM E-score
CAAAGTGC	-0.0833
GATCCTAC	-0.0307
CGCTGGTC	-0.0985
ATCTCTGG	-0.106
AGGTGTAA	0.0658
CCAGACAG	-0.0456
TGGTGACA	0.0463
ATCGCGAT	0.113
ACTCGTAA	0.232
CCTGTTAG	0.14
ATCTGGCG	-0.115
GAGGCGGA	-0.283
CCAACAGC	-0.0518
AAGTACCC	0.34
CATATATC	0.0886
GACCTTAC	0.13
CGTGAATA	-0.137
CCCGGTGC	-0.158
CCCTATAC	-0.0118
ATTGGCGG	-0.0834
CGGAAGCA	0.0721
ACCCCAAG	0.311
ATCGGACA	0.0708
CGGATTAG	-0.123
GCGGCTGA	-0.101

Sequence	PBM E-score
TCCGCAAA	0.0428
AACGTCCA	-0.143
AAGATCTA	-0.16
GGGAAGGA	-0.263
CGGCGGTA	0.143
GTTATAGA	0.175
AAAAAATG	0.17
CCAACGGC	-0.24
ATCTAACA	-0.0218
ATGGAGCG	-0.202
TAGTTCAA	0.0304
CCTATACG	-0.0975
AGTGGTCG	0.0644
GGAGTCCC	-0.0364
AACTCACG	0.0299
TAGTGAGA	-0.145
GGCAGGAA	-0.185
GTACGGTA	0.246
ACCAAGAC	0.0309
ATCCGAAA	0.102
TAGCCTAA	-0.0154
ACTGGTGC	-0.0153
GAGGCGGC	0.0176
GTAGGGAC	-0.0704
CATATGAG	0.0929

Sequence	PBM E-score
CGCTGAAA	0.0756
AGCTATAT	-0.211
GGGCGAGA	-0.219
GCCTCCTA	-0.28
TCAATTCA	-0.0395
CCCTTCCC	0.163
CTCTTCGA	-0.00709
CCGCGAGG	0.223
AGCGGACG	-0.084
AGTCTCCC	-0.332
GCTGGACA	-0.27
TGGGACCA	-0.0424
AGAGCCAA	-0.0107
AAAAAACC	0.251
CTAAGACC	0.134
CTCCATAA	-0.0524
AAGTGCCG	-0.0393
CAGGAAGC	0.0803
GCGTGCAA	-0.107
AAGCTGGG	-0.232
AAAACCGG	0.272
AGTGCCAC	-0.123

Reference: the supplement of paper PMC3334620
